{"source": "the supplement of paper PMC8728848", "binders": {"B1": {"name": "AFCNVH (Aspergillus fumigatus) (protein)", "chain": "MSLRGFHTTCDTIVLKDKHILSSRCKRPDGTYSFSEIDLNDCLGNNNGKFVWGGESFVDSASQVNLALEGGEGRPMLHAQLNDWHGSVQSASVNLGECIQNEAGGLEYMHC"}}, "assay_in_all_cases": "glycan array binding signal (z-score within array); higher = stronger binding", "settings_in_all_cases": "glycan notation: IUPAC condensed, linker removed", "key": {"[1]": {"target": "Gal(a1-6)Glc", "in_short": "(§1)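 Columns mapping to the same glycan were averaged after glycan names were converted to IUPAC-condensed notation. The data come from 3228 arrays in the Consortium for Functional Glycomics database, limited to those with an available protein sequence. Binding is reported as a within-array Z-score averaged across arrays of one protein sequence and across linkers.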"}, "[2]": {"target": "Gal(b1-2)Gal", "in_short": "as §1"}, "[3]": {"target": "Gal(b1-3)Gal", "in_short": "as §1"}, "[4]": {"target": "Gal(b1-3)Gal(b1-4)GlcNAc", "in_short": "as §1"}, "[5]": {"target": "Gal(b1-3)GalNAc", "in_short": "as §1"}, "[6]": {"target": "Gal(b1-3)GalNAc(a1-3)[Fuc(a1-2)]Gal(b1-4)Glc", "in_short": "as §1"}, "[7]": {"target": "Gal(b1-3)GalNAc(a1-3)[Fuc(a1-2)]Gal(b1-4)GlcNAc", "in_short": "as §1"}, "[8]": {"target": "Gal(b1-3)GalNAc(b1-3)Gal", "in_short": "as §1"}, "[9]": {"target": "Gal(b1-3)GalNAc(b1-3)Gal(a1-4)Gal(b1-4)Glc", "in_short": "as §1"}, "[10]": {"target": "Gal(b1-3)GalNAc(b1-4)Gal(b1-4)Glc", "in_short": "as §1"}, "[11]": {"target": "Gal(b1-3)GalNAc(b1-4)[Neu5Ac(a2-3)]Gal(b1-4)Glc", "in_short": "as §1"}, "[12]": {"target": "Gal(b1-3)GlcNAc", "in_short": "as §1"}, "[13]": {"target": "Gal(b1-3)GlcNAc(a1-3)Gal(b1-4)GlcNAc", "in_short": "as §1"}, "[14]": {"target": "Gal(b1-3)GlcNAc(a1-6)Gal(b1-4)GlcNAc", "in_short": "as §1"}, "[15]": {"target": "Gal(b1-3)GlcNAc(b1-2)Man", "in_short": "as §1"}, "[16]": {"target": "Gal(b1-3)GlcNAc(b1-2)Man(a1-3)[Gal(b1-3)GlcNAc(b1-2)Man(a1-6)]Man(b1-4)GlcNAc(b1-4)GlcNAc", "in_short": "as §1"}, "[17]": {"target": "Gal(b1-3)GlcNAc(b1-2)Man(a1-3)[Gal(b1-3)GlcNAc(b1-2)Man(a1-6)]Man(b1-4)GlcNAc(b1-4)[Fuc(a1-6)]GlcNAc", "in_short": "as §1"}, "[18]": {"target": "Gal(b1-3)GlcNAc(b1-2)Man(a1-3)[GlcNAc(b1-4)][Gal(b1-3)GlcNAc(b1-2)Man(a1-6)]Man(b1-4)GlcNAc(b1-4)GlcNAc", "in_short": "as §1"}, "[19]": {"target": "Gal(b1-3)GlcNAc(b1-2)[Gal(b1-3)GlcNAc(b1-6)]Man(a1-6)[Gal(b1-3)GlcNAc(b1-2)Man(a1-3)]Man(b1-4)GlcNAc(b1-4)GlcNAc", "in_short": "as §1"}, "[20]": {"target": "Gal(b1-3)GlcNAc(b1-3)Gal(b1-3)GlcNAc", "in_short": "as §1"}, "[21]": {"target": "Gal(b1-3)GlcNAc(b1-3)Gal(b1-4)Glc", "in_short": "as §1"}, "[22]": {"target": "Gal(b1-3)GlcNAc(b1-3)Gal(b1-4)GlcNAc", "in_short": "as §1"}, "[23]": {"target": "Gal(b1-3)GlcNAc(b1-3)Gal(b1-4)GlcNAc(b1-2)Man(a1-3)[Gal(b1-3)GlcNAc(b1-3)Gal(b1-4)GlcNAc(b1-2)Man(a1-6)]Man(b1-4)GlcNAc(b1-4)GlcNAc", "in_short": "as §1"}, "[24]": {"target": "Gal(b1-3)GlcNAc(b1-3)Gal(b1-4)GlcNAc(b1-2)[Gal(b1-3)GlcNAc(b1-3)Gal(b1-4)GlcNAc(b1-6)]Man(a1-6)[Gal(b1-3)GlcNAc(b1-3)Gal(b1-4)GlcNAc(b1-2)Man(a1-3)]Man(b1-4)GlcNAc(b1-4)[Fuc(a1-6)]GlcNAc", "in_short": "as §1"}, "[25]": {"target": "Gal(b1-3)GlcNAc(b1-3)Gal(b1-4)GlcNAc(b1-3)Gal(b1-4)GlcNAc(b1-2)[Gal(b1-3)GlcNAc(b1-3)Gal(b1-4)GlcNAc(b1-3)Gal(b1-4)GlcNAc(b1-6)]Man(a1-6)[Gal(b1-3)GlcNAc(b1-3)Gal(b1-4)GlcNAc(b1-3)Gal(b1-4)GlcNAc(b1-2)Man(a1-3)]Man(b1-4)GlcNAc(b1-4)[Fuc(a1-6)]GlcNAc", "in_short": "as §1"}, "[26]": {"target": "Gal(b1-3)GlcNAc(b1-3)Gal(b1-4)GlcNAc(b1-6)[Gal(b1-3)GlcNAc(b1-3)]Gal(b1-4)Glc", "in_short": "as §1"}, "[27]": {"target": "Gal(b1-3)GlcNAc(b1-3)Gal(b1-4)[Fuc(a1-3)]GlcNAc", "in_short": "as §1"}, "[28]": {"target": "Gal(b1-3)GlcNAc(b1-3)Gal(b1-4)[Fuc(a1-3)]GlcNAc(b1-6)[Gal(b1-3)GlcNAc(b1-3)]Gal(b1-4)Glc", "in_short": "as §1"}, "[29]": {"target": "Gal(b1-3)GlcNAc(b1-3)GalNAc", "in_short": "as §1"}, "[30]": {"target": "Gal(b1-3)GlcNAc(b1-6)Gal(b1-4)GlcNAc", "in_short": "as §1"}, "[31]": {"target": "Gal(b1-3)GlcNAc(b1-6)GalNAc", "in_short": "as §1"}, "[32]": {"target": "Gal(b1-3)GlcNAc(b1-6)[Gal(b1-3)]GalNAc", "in_short": "as §1"}, "[33]": {"target": "Gal(b1-3)GlcNAc6S", "in_short": "as §1"}, "[34]": {"target": "Gal(b1-3)[Fuc(a1-4)]GlcNAc", "in_short": "as §1"}, "[35]": {"target": "Gal(b1-3)[Fuc(a1-4)]GlcNAc(b1-2)Man", "in_short": "as §1"}, "[36]": {"target": "Gal(b1-3)[Fuc(a1-4)]GlcNAc(b1-2)Man(a1-3)[Gal(b1-3)[Fuc(a1-4)]GlcNAc(b1-2)Man(a1-6)]Man(b1-4)GlcNAc(b1-4)[Fuc(a1-6)]GlcNAc", "in_short": "as §1"}, "[37]": {"target": "Gal(b1-3)[Fuc(a1-4)]GlcNAc(b1-3)Gal(b1-3)[Fuc(a1-4)]GlcNAc", "in_short": "as §1"}, "[38]": {"target": "Gal(b1-3)[Fuc(a1-4)]GlcNAc(b1-3)Gal(b1-4)[Fuc(a1-3)]GlcNAc", "in_short": "as §1"}, "[39]": {"target": "Gal(b1-3)[Fuc(a1-4)]GlcNAc(b1-6)GalNAc", "in_short": "as §1"}, "[40]": {"target": "Gal(b1-3)[GlcNAc(b1-6)]GalNAc", "in_short": "as §1"}, "[41]": {"target": "Gal(b1-3)[Neu5Ac(a2-6)]GalNAc", "in_short": "as §1"}, "[42]": {"target": "Gal(b1-3)[Neu5Ac(a2-6)]GlcNAc(b1-4)Gal(b1-4)Glc", "in_short": "as §1"}, "[43]": {"target": "Gal(b1-3)[Neu5Ac(b2-6)]GalNAc", "in_short": "as §1"}, "[44]": {"target": "Gal(b1-4)Gal", "in_short": "as §1"}, "[45]": {"target": "Gal(b1-4)GalNAc(a1-3)[Fuc(a1-2)]Gal(b1-4)GlcNAc", "in_short": "as §1"}}, "note": "Some of the results follow."}
{"binder": "B1", "values": [{"measurement": "glycan array binding signal (z-score)", "setting": "[1]", "value": -0.553}, {"measurement": "glycan array binding signal (z-score)", "setting": "[2]", "value": -0.413}, {"measurement": "glycan array binding signal (z-score)", "setting": "[3]", "value": -0.397}, {"measurement": "glycan array binding signal (z-score)", "setting": "[4]", "value": -1.56}, {"measurement": "glycan array binding signal (z-score)", "setting": "[5]", "value": -0.335}, {"measurement": "glycan array binding signal (z-score)", "setting": "[6]", "value": -0.344}, {"measurement": "glycan array binding signal (z-score)", "setting": "[7]", "value": 0.111}, {"measurement": "glycan array binding signal (z-score)", "setting": "[8]", "value": -0.352}, {"measurement": "glycan array binding signal (z-score)", "setting": "[9]", "value": -0.212}, {"measurement": "glycan array binding signal (z-score)", "setting": "[10]", "value": -0.3}, {"measurement": "glycan array binding signal (z-score)", "setting": "[11]", "value": -0.311}, {"measurement": "glycan array binding signal (z-score)", "setting": "[12]", "value": -0.372}, {"measurement": "glycan array binding signal (z-score)", "setting": "[13]", "value": -0.015}, {"measurement": "glycan array binding signal (z-score)", "setting": "[14]", "value": -0.332}, {"measurement": "glycan array binding signal (z-score)", "setting": "[15]", "value": -0.247}, {"measurement": "glycan array binding signal (z-score)", "setting": "[16]", "value": -0.17}, {"measurement": "glycan array binding signal (z-score)", "setting": "[17]", "value": -0.33}, {"measurement": "glycan array binding signal (z-score)", "setting": "[18]", "value": 2.36}, {"measurement": "glycan array binding signal (z-score)", "setting": "[19]", "value": -0.413}, {"measurement": "glycan array binding signal (z-score)", "setting": "[20]", "value": -0.453}, {"measurement": "glycan array binding signal (z-score)", "setting": "[21]", "value": -0.449}, {"measurement": "glycan array binding signal (z-score)", "setting": "[22]", "value": -0.612}, {"measurement": "glycan array binding signal (z-score)", "setting": "[23]", "value": -0.427}, {"measurement": "glycan array binding signal (z-score)", "setting": "[24]", "value": 0.48}, {"measurement": "glycan array binding signal (z-score)", "setting": "[25]", "value": 0.093}, {"measurement": "glycan array binding signal (z-score)", "setting": "[26]", "value": -0.193}, {"measurement": "glycan array binding signal (z-score)", "setting": "[27]", "value": -0.272}, {"measurement": "glycan array binding signal (z-score)", "setting": "[28]", "value": -0.457}, {"measurement": "glycan array binding signal (z-score)", "setting": "[29]", "value": -0.414}, {"measurement": "glycan array binding signal (z-score)", "setting": "[30]", "value": -0.391}, {"measurement": "glycan array binding signal (z-score)", "setting": "[31]", "value": -0.391}, {"measurement": "glycan array binding signal (z-score)", "setting": "[32]", "value": -0.007}, {"measurement": "glycan array binding signal (z-score)", "setting": "[33]", "value": -0.148}, {"measurement": "glycan array binding signal (z-score)", "setting": "[34]", "value": -0.103}, {"measurement": "glycan array binding signal (z-score)", "setting": "[35]", "value": -0.254}, {"measurement": "glycan array binding signal (z-score)", "setting": "[36]", "value": 0.074}, {"measurement": "glycan array binding signal (z-score)", "setting": "[37]", "value": -0.116}, {"measurement": "glycan array binding signal (z-score)", "setting": "[38]", "value": -0.381}, {"measurement": "glycan array binding signal (z-score)", "setting": "[39]", "value": -0.427}, {"measurement": "glycan array binding signal (z-score)", "setting": "[40]", "value": 0.21}, {"measurement": "glycan array binding signal (z-score)", "setting": "[41]", "value": -0.504}, {"measurement": "glycan array binding signal (z-score)", "setting": "[42]", "value": -0.502}, {"measurement": "glycan array binding signal (z-score)", "setting": "[43]", "value": -0.474}, {"measurement": "glycan array binding signal (z-score)", "setting": "[44]", "value": -0.384}, {"measurement": "glycan array binding signal (z-score)", "setting": "[45]", "value": -0.059}]}
